Laboratory results published in paper PMC4231161.
Results are given in words; binding and its absence hold for the method and conditions named. Binding seen in cells or lysates may run through a third protein. Some binding calls cover weakened binding; strength is not graded here. For some of these results: Sequences can lack the tags named with a protein.

Chains of the proteins cited; added tags and fusions are not shown.
UniProt A0A125YP06: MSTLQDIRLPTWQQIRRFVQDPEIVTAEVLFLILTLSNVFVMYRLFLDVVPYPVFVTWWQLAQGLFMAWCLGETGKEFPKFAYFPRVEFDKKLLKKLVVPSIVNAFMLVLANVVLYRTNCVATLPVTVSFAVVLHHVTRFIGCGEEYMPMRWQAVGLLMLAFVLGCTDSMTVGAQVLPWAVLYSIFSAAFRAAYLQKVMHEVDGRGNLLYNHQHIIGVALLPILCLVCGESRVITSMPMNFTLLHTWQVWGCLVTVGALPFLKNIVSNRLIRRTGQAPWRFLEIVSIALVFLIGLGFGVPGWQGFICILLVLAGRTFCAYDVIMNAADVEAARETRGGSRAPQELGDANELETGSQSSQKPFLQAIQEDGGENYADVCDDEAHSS

T1: KI-GAP45Ty (GAP45 Ty-tagged at the endogenous locus) (Toxoplasma gondii) (UniProt Q7Z289)
T1 sequence: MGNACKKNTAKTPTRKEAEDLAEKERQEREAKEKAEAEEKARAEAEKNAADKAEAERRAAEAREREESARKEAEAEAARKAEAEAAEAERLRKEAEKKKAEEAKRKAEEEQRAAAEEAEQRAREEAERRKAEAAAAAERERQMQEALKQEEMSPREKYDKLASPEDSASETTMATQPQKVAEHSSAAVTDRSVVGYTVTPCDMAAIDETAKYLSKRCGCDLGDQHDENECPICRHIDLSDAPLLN

T2: GAP45Ty (second copy of GAP45 with a Ty tag) (Toxoplasma gondii) (UniProt Q7Z289)
T2 sequence: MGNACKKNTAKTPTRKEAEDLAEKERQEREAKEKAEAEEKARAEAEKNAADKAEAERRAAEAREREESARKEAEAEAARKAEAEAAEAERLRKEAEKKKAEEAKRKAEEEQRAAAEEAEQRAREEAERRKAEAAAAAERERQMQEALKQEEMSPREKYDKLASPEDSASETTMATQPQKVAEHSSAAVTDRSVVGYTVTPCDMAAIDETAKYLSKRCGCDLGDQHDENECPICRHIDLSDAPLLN


What was measured:
[1] = molecular target: KI-GAP80Ty (GAP80 Ty-tagged at the endogenous locus) (Toxoplasma gondii); test: co-IP; anti-Ty co-IP of tagged bait from Triton X-100 lysate of tachyzoites; elution fractions analysed by western blot (anti-MLC1, anti-MyoA, anti-GAP40, anti-GAP45, anti-MyoC)
[2] = molecular target: T1, KI-GAP45Ty (GAP45 Ty-tagged at the endogenous locus) (Toxoplasma gondii); test: co-IP; [35S]-methionine/cysteine labelled tachyzoites lysed in CoIP buffer (1% Triton X-100, 50 mM Tris-HCl pH 8, 150 mM NaCl); tagged bait precipitated with monoclonal anti-Ty or anti-Myc and Protein A-Sepharose, 4 C; eluted proteins seen by autoradiography; also in MyoC-KO background and in GAP45-iKO +/- ATc
[3] = molecular target: KI-IAP1-3Ty (endogenous Ty-tagged full-length version of IAP1) (Toxoplasma gondii); test: as above
[4] = molecular target: KI-GAP80Ty (GAP80 Ty-tagged at the endogenous locus) (Toxoplasma gondii); test: as above
[5] = molecular target: GAP80Ty (second copy of GAP80 with a Ty tag, tubulin promoter) (Toxoplasma gondii); test: as above
[6] = molecular target: T2, GAP45Ty (second copy of GAP45 with a Ty tag) (Toxoplasma gondii); test: as above
[7] = molecular target: MycGFPCtGAP80 (C-terminal domain of GAP80 fused to GFP) (Toxoplasma gondii); test: as above
[8] = molecular target: KI-IAP1-3Ty (endogenous Ty-tagged full-length version of IAP1) (Toxoplasma gondii); test: co-IP; anti-Ty co-IP of tagged bait from Triton X-100 lysate of tachyzoites; elution fractions analysed by western blot (anti-MLC1, anti-MyoA, anti-GAP40, anti-GAP45, anti-MyoC)

Row | Molecule | binding [1] | binding [2] | binding [3] | binding [4] | binding [5] | binding [6] | binding [7] | binding [8]
1 | myosin heavy chain A (MyoA) (from UniProt O00934 1-831) | binds | binds | binds | binds | binds | binds | binds | –
2 | GAP40 (from UniProt A0A125YP06 1-385) | binds | binds | binds | binds | binds | binds | binds | binds
3 | gliding-associated protein GAP45 (protein, UniProt Q7Z289 1-245) MGNACKKNTAKTPTRKEAEDLAEKERQEREAKEKAEAEEKARAEAEKNAADKAEAERRAAEAREREESARKEAEAEAARKAEAEAAEAERLRKEAEKKKAEEAKRKAEEEQRAAAEEAEQRAREEAERRKAEAAAAAERERQMQEALKQEEMSPREKYDKLASPEDSASETTMATQPQKVAEHSSAAVTDRSVVGYTVTPCDMAAIDETAKYLSKRCGCDLGDQHDENECPICRHIDLSDAPLLN | no binding | – | – | – | – | – | – | –
